# The source gives no read counts; variants with many changes may rest on few reads.
# B1: CPEB3 Ribozyme (parent)
# chain: UAACAGGGGGCCACAGCAGAAGCGUUCACGUCGCAGCCCCUGUCAGAUUCUGGUGAAUCUGCGAAUUCUGCUGUAUAUCUC
# Variants of: B1
# Test: self-cleavage, relative activity (ratio to wild type); higher = more cleavage; in vitro, sequencing
# Summary of the method: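 CPEB3 self-cleaving ribozyme mutant libraries were made by rounds of error-prone PCR, barcoded, and transcribed in vitro with T7 RNA polymerase for 5 hours at 37°C. Cleavage occurred during transcription and a 15 min DNase I step before EDTA stop. RNAs were reverse transcribed with template switching and Illumina-sequenced, with DNA sequencing mapping barcodes to variants. Relative activity is the variant's cleaved/total read fraction divided by wild type's (minimum 5 reads), averaged across three batches.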
row,Variant,self-cleavage
1,A13G C39U U43A A47G A56G U69A,0.06
2,A13G G19U U41A,0.22
3,A13G G16C U41C A64U C79U U80A,0.07
4,A13G G24A U26A U31C U48C,0.05
5,A13G G33C U49A G53U U72C A75G,0.07
6,A13G G22A U67C,0.13
7,A13G U25C U80C,0.59
8,A13G C38A U69C,0.42
9,A13G U25A A75G U76A,0.34
10,A13G C50A U51C U54C A64G U74A,0.25
11,A13G U25C A77G U78C,0.1
12,A13G U25C C37A C39A U48C,0.23
13,A13G U25C A35G A45G U69A U72C U80A,0.06
14,A13G C37A U76A U78A,0.33
15,A13G U25A A35U,0.46
16,A13G G24A U31G U72C,0.14
17,A13G G30C A56G A57U,0.07
18,A13G C79A U80C,1.2
19,A13G G16A U26A U69A,0.05
20,A13G U25C C37U C62U G70C U78C,0.05
21,A13G U25C U41C A65G U78C,0.06
22,A13G C39U A47G A56G A77U U80G,0.28
23,A13G G30A A65U,0.11
24,A13G U25A C34G U60G U69A A75U,0.12

row,Variant,self-cleavage
1,A13G G16C A35G U58C U69C,0.14
2,A13G G42U A65G,0.17
3,A13G U25C U26C A35G C79U,0.13
4,A13G G33U U41A A64G U69C,0.15
5,A13G C40U A45G,0.23
6,A13G C39A A45U A47U,0.29
7,A13G U26A U67C U72A U74C A75G,0.13
8,A13G G19A G24C G53A U78C,0.25
9,A13G C38A A56G U72G,0.27
10,A13G C38A U43C,0.18
11,A13G U25G U43C,0.25
12,A13G U25A C32U U60A,0.17
13,A13G G16A A35U U41A U69A,0.04
14,A13G U25C A57G U72C U78C,0.44
15,A13G G61C A77G,0.22
16,A13G U25C U72C U80A,0.08
17,A13G U25C C32A C37A U49C,0.19
18,A13G G19U U26C U51A A75G,0.19
19,A13G G30A A35U U74A,0.13
20,A13G U25C A28G,0.35
21,A13G G24C A56G A77G,0.12
22,A13G G52A U72G U78C,0.6
23,A13G G19C G46U U72C,0.05
24,A13G G30C A35U U41C U54C C71A U78C,0.05

row,Variant,self-cleavage
1,A13G C50U U54C,0.94
2,A13G C68U U69A U76C,0.27
3,A13G G33A U49C U60A G63A U76C,0.08
4,A13G U25C U72C U78C,0.23
5,A13G U25C A47C U48C U60A U69C A77G,0
6,A13G G55U U58C,0.12
7,A13G G16A U26A U66C U74C,0.06
8,A13G U25C A45G A57U U72C,0.1
9,A13G U25C U49C G52U,0.21
10,A13G U26A A28U G33A U54G G63C,0.28
11,A13G C34A C40U U54C,0.21
12,A13G U25A U67C A77G,0.11
13,A13G U26A A65G U72C,0.14
14,A13G G30U U60A A75U,0.11
15,A13G U25C A64U,0.18
16,A13G U26A U31C C68G A75G U78C,0.05
17,A13G U25C C29U U43C U80C,0.29
18,A13G G33A U49C U60A,0.17
19,A13G U26A A28G A64U U80A,0.13
20,A13G U25C U58A U69C U78C,0.05
21,A13G U25C U76A U78C,0.11
22,A13G G42U U67C,0.09
23,A13G G24A U66A,0.06
24,A13G C38U U58C U60G U78C,0.05

row,Variant,self-cleavage
1,A13G U25C A65U A75U,0.08
2,A13G G19U U26C U54A U72C U80C,0.07
3,A13G U25C U66A U72C,0.35
4,A13G G33U U48C A75U,0.13
5,A13G C40A U54C U72C,0.12
6,A13G U26A U49C U78A,0.45
7,A13G C40U U58C,0.43
8,A13G C68A U78C,0.28
9,A13G G16U A28U,0.2
10,A13G G46U U60C U69C,0.12
11,A13G G53C U78A,1.05
12,A13G G24A U26C U69C U76C,0.08
13,A13G G30A U31C U58C U66C,0.08
14,A13G C40A U43C U51C,0.13
15,A13G U25A C59G,0.08
16,A13G G63U U72C,0.98
17,A13G G19C A65G,0.18
18,A13G U26A U72C,0.64
19,A13G U26A U72A,0.16
20,A13G U26A U60C,0.18
21,A13G C44G A77G U78C,0.21
22,A13G G22C U67C U74A,0.04
23,A13G G16A C59G,0.09
24,A13G G19A U74C,0.28

row,Variant,self-cleavage
1,A13G U25A U51G U78C,0.09
2,A13G U25C U26A A45G U51A,0.12
3,A13G U25A U49G C50G,0.17
4,A13G C40G U58C U67C G73A,0.22
5,A13G G36A U41C,0.37
6,A13G C38U A64G,0.33
7,A13G C38G U74A,0.06
8,A13G U26A A35G,0.74
9,A13G G33A U49C U60A U80G,0.04
10,A13G U25C A45C,0.09
11,A13G G19A A21G G22C U25C C71G,0.19
12,A13G G19C U66C U69A,0.15
13,A13G U25C U51A A77G,0.21
14,A13G G19A U25C,0.32
15,A13G C37G A56U U72A U76A,0.12
16,A13G U25C U41A U43C U66G,0.21
17,A13G G24A U25C U41C A57U,0.12
18,A13G G36U U41A G55U U58C,0.14
19,A13G G19U A35U U48A,0.04
20,A13G U25C U41C U43C A56U U80C,0.35
21,A13G U26C A28U A57G,0
22,A13G U25C U26C A65G U67C,0.08
23,A13G U26A A64U U74C,0.1
24,A13G U25C A35G U48A U66C,0.22

row,Variant,self-cleavage
1,A13G U25C A35G U60C U69A,0.05
2,A13G U26A U43A A47C U49G U67C U69C,0.21
3,A13G G36U A47G,0.11
4,A13G U25C U31C U58C,0
5,A13G C38U A45G C79U,0.78
6,A13G U25A A28G C40U A47G G63A,0.21
7,A13G C38U U69C,0.13
8,A13G U25G C32A A57G,0.11
9,A13G G24A A28C U43G U54C U66C,0.07
10,A13G U25C A65G U69A,0.06
11,A13G U25C C68G,0.18
12,A13G G16A A21G A56G U72C,0.19
13,A13G G24A U54C,0.19
14,A13G C39U U67A,0.17
15,A13G U25C C37U G70C U78C,0.09
16,A13G G33A G55C U72A,0.04
17,A13G U25C G36A G52A U67C U76A,0.11
18,A13G G42A U54C U72A,0.15
19,A13G C40A U49C A75G U76C,0.24
20,A13G G24A U41C U51G A64G A65U,0.08
21,A13G G24C C38U A56U U78C,0.17
22,A13G U25C A47G A75U,0.15
23,A13G G19C A45G,0.29
24,A13G U25C U31A C39U U48C A64U A65G,0.06

row,Variant,self-cleavage
1,A13G U26A A45G A57U U66C U72C,0.18
2,A13G G19C C29U G52U U60G A77G,0.05
3,A13G G33A U54C U72C U78A,0.15
4,A13G C34G U69C,0.16
5,A13G C38A U41C A56G U67A,0.06
6,A13G C39U A47G A56G U69C,0.2
7,A13G G46U U48C U80C,0.09
8,A13G C39A U49C,0.26
9,A13G U25C U26C G53A A64G,0.32
10,A13G U25C U26C U31A C68G U78C,0.1
11,A13G U25C U41A U60C U76C,0.15
12,A13G U26A A64G A75C A77U,0.74
13,A13G C68G A75G U78C,0.19
14,A13G U26A A28G U49C A64U U72C,0.04
15,A13G C39A U43C U78C,0.16
16,A13G C50A G52C A75U,0.74
17,A13G U25A U60A A64G U78A,0.09
18,A13G G73A U74C A75G,1.14
19,A13G G33A A45G U66C U80C,0.09
20,A13G G19U A65G,0.23
21,A13G G30U A45G,0.22
22,A13G U25C G52U,0.11
23,A13G G52A A56G,1.04
